# Results published in patent US20060117402A1 (KOREA KUMHO PETROCHEMICAL, published 2006).
# B1: GST alone (other)
# chain: not shown
# notes: Negative control in the GST pulldown; also called glutathione-S-transferase
# Target: T1, full-length ABF2, in vitro translated and 35S-Met-labelled (Arabidopsis, UniProt Q9M7Q4 1-416, 35S-Met-labelled)
# T1 construct: range 1-416; Cloned into pCITE (Novagen) and translated with the TNT kit; also called ABF2/AREB1
# T1 sequence (looked up): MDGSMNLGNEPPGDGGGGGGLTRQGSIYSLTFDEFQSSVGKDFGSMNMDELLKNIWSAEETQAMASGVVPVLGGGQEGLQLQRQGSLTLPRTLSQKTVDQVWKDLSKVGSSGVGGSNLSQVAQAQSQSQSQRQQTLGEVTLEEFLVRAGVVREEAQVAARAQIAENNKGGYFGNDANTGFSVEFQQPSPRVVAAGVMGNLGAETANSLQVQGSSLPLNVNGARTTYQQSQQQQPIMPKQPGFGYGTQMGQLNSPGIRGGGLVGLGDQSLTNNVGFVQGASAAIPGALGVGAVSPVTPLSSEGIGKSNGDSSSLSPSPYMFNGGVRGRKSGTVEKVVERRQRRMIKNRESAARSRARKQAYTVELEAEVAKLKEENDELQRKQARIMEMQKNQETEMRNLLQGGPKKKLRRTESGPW
# Experiment: GST pulldown of 35S-labelled ABF2, autoradiography
# Protocol: For binding assay, GST-ARIA fusion proteins (0.5 μg) were incubated with the Glutathione-Sepharose 4B resins for 1 hr at 4° C. in a binding buffer (50 mM Tris, pH 8.0, 100 mM NaCl, 10% glycerol, 0.5% Triton X-100, 1 mM PMSF). In vitro-translated, ³⁵S-labeled ABF2 was then added and incubation was continued for 2 hr with constant rotation. The resins were washed five times with the binding buffer and resuspended in SDS-polyacrylamide gel electrophoresis sample buffer. The proteins were separated on 15% SDS-polyacrylamide gel and visualized by autoradiography.
binder,measurement,value
B1,binding result,no binding
